Measured values as given in PubChem BioAssay AID504332 (National Center for Advancing Translational Sciences (NCATS), 2011).
“And” between values parts separate entries of the source, which are not always exact repeats. Equal values may be shown once. Hit rate of the full screen: of about 350,000 compounds, about 31,000 (8.9%) were called active. The inconclusive results got no clear call from the source; some entries with a clear call stand among them for comparison. The call rests on the fitted dose curve; in most records, active means well fitted inhibition curve with a large enough effect; inconclusive means small, poorly fitted or top-dose-only effect; inactive means no such curve, though single readings can be large or run the other way. Where the call is inconclusive, the potency comes from a doubtful curve fit.

biological target: Histone-lysine N-methyltransferase EHMT2 (Homo sapiens) (UniProt Q96KQ7); test: qHTS Assay for Inhibitors of Histone Lysine Methyltransferase G9a; conditions: G9a H3K9 monomethylation, AlphaScreen, 2 h; activity, negative = inhibition: at 59 µM (top of the series) unless noted; further: nearly all actives have a fitted effect of over 75% in size
Summary of the method: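 Compounds were preincubated with 20 nM G9a for 15 min, after which biotinylated H3K9 peptide (500 nM) and SAM (20 uM) started a 2 h room-temperature reaction. Monomethylated product was quantified by antibody-based AlphaScreen chemiluminescence.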
On the % scale 0 is the no-effect control and ±100 the full control effect; potency means the concentration at half of the fitted maximal effect; tags describe the fitted curve by direction and shape.

Chain of UniProt Q96KQ7 (Q96KQ7 whole entry, looked up): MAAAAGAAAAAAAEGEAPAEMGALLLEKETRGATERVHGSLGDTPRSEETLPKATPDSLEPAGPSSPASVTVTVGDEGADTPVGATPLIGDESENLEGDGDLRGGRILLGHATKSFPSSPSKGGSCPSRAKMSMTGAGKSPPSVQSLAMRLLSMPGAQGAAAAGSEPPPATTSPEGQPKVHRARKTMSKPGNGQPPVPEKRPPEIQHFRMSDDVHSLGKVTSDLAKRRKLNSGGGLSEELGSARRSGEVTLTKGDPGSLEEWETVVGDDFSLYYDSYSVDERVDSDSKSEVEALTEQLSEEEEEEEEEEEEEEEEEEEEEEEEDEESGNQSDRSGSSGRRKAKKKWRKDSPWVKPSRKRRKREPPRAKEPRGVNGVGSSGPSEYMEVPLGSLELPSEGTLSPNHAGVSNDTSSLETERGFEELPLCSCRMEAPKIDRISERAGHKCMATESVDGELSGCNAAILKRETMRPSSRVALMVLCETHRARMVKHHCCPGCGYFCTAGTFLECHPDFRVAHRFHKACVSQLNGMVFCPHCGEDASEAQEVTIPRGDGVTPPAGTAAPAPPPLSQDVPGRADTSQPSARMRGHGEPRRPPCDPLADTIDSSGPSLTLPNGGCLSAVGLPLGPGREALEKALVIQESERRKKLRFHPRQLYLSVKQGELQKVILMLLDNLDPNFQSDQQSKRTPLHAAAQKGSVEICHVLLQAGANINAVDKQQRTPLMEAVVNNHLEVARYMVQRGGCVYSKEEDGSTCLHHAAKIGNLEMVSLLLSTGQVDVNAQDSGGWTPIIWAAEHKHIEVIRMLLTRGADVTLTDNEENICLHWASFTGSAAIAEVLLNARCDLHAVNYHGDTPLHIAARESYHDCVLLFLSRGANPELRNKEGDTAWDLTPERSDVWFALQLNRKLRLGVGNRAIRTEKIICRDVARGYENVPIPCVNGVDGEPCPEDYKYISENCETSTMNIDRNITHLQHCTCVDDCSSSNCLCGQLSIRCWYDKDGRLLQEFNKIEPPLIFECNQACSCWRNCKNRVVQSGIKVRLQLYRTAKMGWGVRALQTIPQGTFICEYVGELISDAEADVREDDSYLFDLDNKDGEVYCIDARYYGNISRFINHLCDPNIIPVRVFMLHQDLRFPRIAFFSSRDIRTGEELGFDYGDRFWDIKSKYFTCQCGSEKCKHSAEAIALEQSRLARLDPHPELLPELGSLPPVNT

| Compound | Potency | activity, negative = inhibition |
| --- | --- | --- |
| Cc1[nH]c2ccccc2c1C(=O)COC(=O)c1ccc([N+](=O)[O-])s1 | active: 31.6 µM | – |
| CCCOc1ccc(-c2nc(N3CCN(CC)CC3)c3ccccc3n2)cc1 | inconclusive: 89.1 µM [inhibitor, single point] | – |
| CC1=C(C(=O)OC(C)C)C(c2cccs2)n2ncnc2N1 (stereo unspecified) | inconclusive: 79.4 µM [inhibitor, single point] | – |
| CCCn1c(Cc2ccccc2)n[nH]c1=S | inconclusive: 1.12 µM [inhibitor, single point] | – |
| Cc1ccc(NC(=O)Cn2nnc(-c3nc(-c4ccc(Cl)cc4)no3)c2N)cc1C | inconclusive: 6.31 µM [inhibitor, partial curve, poor fit] | – |
| Cc1cccc(N2CCN(C(=O)c3ccc(NC(=O)c4nsc5ccccc45)cc3)CC2)c1C | inactive | – |
| O=S(=O)(/N=C(\Sc1ccc(Cl)cc1)c1ccccc1)c1ccccc1 | – | inactive: -2.24% [at 12.7 µM] |
| CC(C)(Oc1cccc2ccccc12)C(=O)O | inconclusive: 20 µM [inhibitor, single point] | – |
| CCc1cc(C(c2ccncc2)N2CCN(C)CC2)c(NC(=O)c2ccccc2)s1 (stereo unspecified) | active: 39.8 µM | – |
| CC(=O)N1CCN(CC(=O)Nc2c(Cl)cccc2Cl)CC1 | active: 3.16 µM | – |
| CN(CCOc1ccccc1Cl)Cc1ccccc1 | active: 10 µM | – |
| COc1cc(/C=C2\SC(=S)N(CC(=O)Nc3ccccn3)C2=O)cc(OC)c1OC | inconclusive: 20 µM [inhibitor, single point] | – |
| C/C(=C\c1ccco1)CN1CCN(Cc2ccc(C)o2)C(CCO)C1 (stereo unspecified) | inconclusive: 35.5 µM [inhibitor, partial curve, poor fit] | – |
| COc1ccc2[nH]cc(CCNC(=O)c3cnn(-c4ccccc4Cl)c3C3CCN(C(=O)OC(C)(C)C)CC3)c2c1 | inconclusive: 25.1 µM [inhibitor, partial curve, poor fit] | – |
| Cc1ccc(-c2nc(CN(C)C3CCOC3)c(C)o2)s1 (stereo unspecified) | inconclusive: 39.8 µM [inhibitor, partial curve, poor fit] | – |
| CN(C(=O)c1ccc(NC(=O)Cc2cccc(NC(=O)C3CCN(C(=O)CCc4ccccc4)CC3)c2)cc1)C1CCCC1 | – | inconclusive: -81.5% [inhibitor] [at 2.33 µM] |
| O=[N+]([O-])c1cc(-c2nc(-c3ccccc3)no2)ccc1NCCc1ccccc1 | inconclusive: 22.4 µM [inhibitor, partial curve, poor fit] | – |
| CCOc1ccc(N2CC(c3nc4ccccc4n3Cc3cccc(C)c3)CC2=O)cc1 (stereo unspecified) | inconclusive: 0.199 µM [inhibitor, full curve] | – |
| COc1ccccc1N1CCN(C(=O)c2cc(-c3ccc(Cl)cc3)on2)CC1 | inconclusive: 50.1 µM [inhibitor, partial curve, poor fit] | – |
| CNC(=S)N/N=C1\CC(c2ccccc2)Oc2ccccc21 (stereo unspecified) | inactive | – |
| Cc1ccccc1CNC(=O)c1ccc(CS(=O)Cc2ccc(Cl)cc2)o1 (stereo unspecified) | inactive | – |
| Cc1ccc(-c2csc(N3CCN(CCCn4c(-c5ccncc5)nc5ccccc54)CC3)n2)cc1 | active: 50.1 µM | – |
| O=c1c([N+](=O)[O-])cccn1Cc1cccc(Br)c1 | inactive | – |
| NC(=S)N/N=C/c1cccnc1 | – | inactive: 5.69% [at 12.7 µM] |

| Compound | Potency | activity, negative = inhibition |
| --- | --- | --- |
| O=C(CC1SC(=O)N(c2ccccc2)C1=O)Nc1ccccc1 (stereo unspecified) | inconclusive: 39.8 µM [inhibitor, partial curve, poor fit] | – |
| CCCn1c(CCC(=O)Nc2cccc(CC)c2)nc2cccnc21 | inconclusive: 39.8 µM [inhibitor, partial curve, poor fit] | – |
| CCOc1ccccc1C(=O)Nc1cc2c(cc1N1CCOCC1)n(C)c(=O)n2C | inactive | – |
| CCOc1ccc(N(CC(=O)N2CC=C(c3ccccc3)CC2)S(=O)(=O)c2c(C)noc2C)cc1 | inconclusive: 89.1 µM [inhibitor, single point] | – |
| Cc1occc1C(=O)Nc1ccc2c(c1)OCCO2 | – | inactive: -16.5% [at 12.7 µM] |
| Cc1ccc(OCC(=O)Nc2cc(-c3cccc(C)c3)nn2-c2ccccc2)cc1 | inactive | – |
| O=C(NCc1ccco1)/C(=C\C=C\c1ccccc1)NC(=O)c1ccccc1Br | inconclusive: 39.8 µM [inhibitor, single point] | – |
| N#C/C(=C/C=C/c1ccccc1)C(=O)Nc1ccccc1 | inconclusive: 44.7 µM [inhibitor, partial curve, poor fit] | – |
| Cn1c(=N)n(CC(O)c2ccco2)c2ccccc21 (stereo unspecified) | inactive | – |
| Cc1cc(C)n(C(CC(=O)N2CCc3ccccc3C2)C(=O)O)n1 (stereo unspecified) | inconclusive: 31.6 µM [inhibitor, single point] | – |
| CN1CCN(c2ccc(NC(=O)c3ccc(Cl)cc3Cl)cc2)CC1 | inconclusive: 89.1 µM [inhibitor, single point] | – |
| O=C(CC1C(=O)NCCN1CCCc1ccccc1)NCCc1ccccc1Cl (stereo unspecified) | inconclusive: 79.4 µM [inhibitor, single point] | – |
| O=C(Nc1nc2ccccc2s1)c1cc(-c2ccccc2)nn1-c1ccccc1 | inconclusive: 5.62 µM [inhibitor, partial curve] | – |
| CN(C)c1ccc(C2Nc3ccccc3C(=O)N2NS(=O)(=O)c2ccccc2)cc1 (stereo unspecified) | active: 39.8 µM | – |
| CCn1c(CC2C(=O)N(C)c3ccccc32)nc2ccccc2c1=O (stereo unspecified) | inactive | – |
| COc1ccc(-c2[nH]ncc2CN(CC2CCC(=O)N2)C(C)C)cc1F (stereo unspecified) | inconclusive: 89.1 µM [inhibitor, single point] | – |
| COC(=O)c1ccccc1S(=O)(=O)N1CCC(C(=O)NC2CCCCC2)CC1 | inconclusive: 3.16 µM [inhibitor, single point] | – |
| C/C(=N\Nc1c(Cl)c(Cl)nc(C(=O)O)c1Cl)c1ccc(O)cc1 | inconclusive: 89.1 µM [inhibitor, single point] | – |
| Cc1ccc(S(=O)(=O)N(C)CC(=O)OCC(=O)NCCN2C(=O)CSC2=O)cc1 | – | inactive: -10.8% [at 2.33 µM] |
| Cc1nn(C(C)(C)C)c(OC(=O)c2cccc(F)c2)c1Sc1ccccc1 | inactive | – |
| Cc1nn(CCc2n[nH]c(=S)n2-c2ccc(F)cc2)c(C)c1[N+](=O)[O-] | active: 2.24 µM | – |
| C=CCn1c(-c2csc(-c3ccc(Cl)cc3)n2)n[nH]c1=S | inconclusive: 1 µM [inhibitor, partial curve, poor fit] | – |
| CC(C)C[C@H](CO)Nc1nc(N(C)c2cccc(Cl)c2)c2ncn(C(C)C)c2n1 | – | inconclusive: -62.4% [inhibitor] |
| CC(O)C(=O)O (stereo unspecified) | inactive | – |

| Compound | Potency | activity, negative = inhibition |
| --- | --- | --- |
| CN1CCc2cccc3c2[C@@H]1Cc1ccc(O)c(O)c1-3 | active: 631 nM and active: 2 µM | – |
| O=c1[nH]c(CS(=O)(=O)c2ccccc2)nc2ccccc12 | inconclusive: 20 µM [inhibitor, single point] | – |
| COc1cc(CCC(=O)OCc2ccccc2C#N)cc(OC)c1OC | inactive | – |
| COc1ccc(OC)c(NC(=O)C23CC4CC(C2)CC(n2cnc(Br)n2)(C4)C3)c1 | inconclusive: 1.41 µM [inhibitor, single point] | – |
| Cc1c(/C(O)=C2/C(=O)C(=O)N(Cc3cccnc3)C2c2cccs2)cnn1-c1ccccc1 (stereo unspecified) | inconclusive: 2.24 µM [inhibitor, single point] | – |
| O=C(CS(=O)(=O)Cc1ccccc1)Nc1nc2c(s1)CCCC2 | – | inactive: -32% [at 12.7 µM] |
| COc1ccc2sc(N(CCN(C)C)C(=O)/C=C/c3cccs3)nc2c1 | inconclusive: 50.1 µM [inhibitor, partial curve, poor fit] | – |
| Cc1cc(C)n(-c2ccc(C(=O)N3CCC(CO)(Cc4ccccc4)CC3)cc2)n1 | inconclusive: 1.26 µM [inhibitor, partial curve, poor fit] | – |
| COc1ccccc1NC(=O)CN1CCN(CC(=O)Nc2cc(NC(C)=O)ccc2OC)CC1 | active: 39.8 µM | – |
| Cc1cccc(NC(=O)c2c(C)nn(-c3ccccc3)c2Cl)c1 | inactive | – |
| C[C@H]1C[C@@H]2[C@@H]([C@@H](O)C[C@@]3(C)[C@H]2CC[C@]3(O)C(=O)CO)[C@@]2(C)C=CC(=O)C=C12 | inactive | – |
| Cc1ccc2nc3c(cc(S(=O)(=O)c4ccccc4)c(=N)n3Cc3ccco3)c(=O)n2c1 | inactive | – |
| CC(=O)C(Sc1nc(NC(C)(C)C)nc(N(C)C)n1)C(C)=O | inconclusive: 20 µM [inhibitor, single point] | – |
| O=C(Nc1nnc2n1CCS2)c1ccccc1 | active: 4.47 µM | – |
| Cc1ccc(-c2csc(SCC(=O)c3c(N)n(C4CC4)c(=O)[nH]c3=O)n2)cc1 | inconclusive: 56.2 µM [inhibitor, partial curve] | – |
| CCN(CC)S(=O)(=O)c1cccc(C(=O)N/N=C/c2c(C)nn(-c3ccccc3)c2Cl)c1 | inconclusive: 28.2 µM [inhibitor, single point] | – |
| CC(C)c1ccc(NC(=S)NCCc2c[nH]c3ccccc23)cc1 | active: 44.7 µM | – |
| CCOC(=O)N1CCN(C(=O)c2cn(C)c3ccc(S(=O)(=O)N4CCCC4)cc3c2=O)CC1 | inactive | – |
| COc1cccc(C(=O)Nc2ccc(-c3nnc(-c4ccco4)o3)cc2)c1 | inactive | – |
| O=C(O)C1CCN(C(=O)CCN2C(=O)S/C(=C\c3ccccc3)C2=O)CC1 | inactive | – |
| CCS(=O)(=O)n1nc(C(=O)N2CCOCC2)nc1N | – | inconclusive: -56.8% [inhibitor] |
| COc1cc(CNCCc2ccccc2)cc(Cl)c1OCc1ccccc1 | inactive | – |
| CN(C)CCNc1ncnc2c1sc1nc(-c3ccccc3)c3c(c12)CCCC3 | inconclusive: 31.6 µM [inhibitor, full curve] | – |
